Some of the results follow. Sequences were assembled here from the parent chain. Inactive controls read about 0.05.
B1: TEV protease; numbered along this chain (parent)
chain: MGESLFKGPRDYNPISSSICHLTNESDGHTTSLYGIGFGPFIITNKHLFRRNNGTLVVQSLHGVFKVKDTTTLQQHLVDGRDMIIIRMPKDFPPFPQKLKFREPQREERICLVTTNFQTKSMSSMVSDTSCTFPSGDGIFWKHWIQTKDGQCGSPLVSTRDGFIVGIHSASNFTNTNNYFTSVPKNFMELLTNQEAQQWVSGWRLNADSVLWGGHKVFMVKPEEPFQPVKEATQL

Variants of: B1
Assay: raw area under fraction-flipped curve 0-4 h after induction (AUC4h, not background-subtracted), DNA-recorder readout of cleavage of the substrate (dimensionless); higher = more cleavage of the substrate by the protease variant
Details: temperature: 34 °C; time window: 0-4 h after rhamnose induction
Description: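 In vivo DNA recorder in E. coli TOP10(DE3) ΔrhaA at 34 °C. Each TEVp single-site mutant (parent TEVp 0) is paired with a single-site variant of the 7-mer TEVs (canonical ENLYFQ|S). The substrate sits between flexible linkers in a Bxb1-sfGFP-TEVs-SsrA fusion, so cleavage stabilises Bxb1 and speeds flipping of a recombination array, read by NGS. The value is the raw area under the fraction-flipped curve over 0-4 h after rhamnose induction (AUC4h), with ≥20 reads per time point. It is not background-subtracted; inactive controls average about 0.047.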
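Note: Bxb1 expression induced with 0.2% (w/v) L-rhamnose at OD600 near 0.5, cultures sampled hourly, flipped fraction per protease–substrate barcode pair counted by paired-end Illumina sequencing.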

| Variant | area with substrate ECLYFQS | area with substrate EDLYFQS | area with substrate EELYFQS | area with substrate EFLYFQS | area with substrate EHLYFQS | area with substrate EILYFQS | area with substrate EKLYFQS | area with substrate ELLYFQS | area with substrate EMLYFQS | area with substrate ERLYFQS | area with substrate ESLYFQS | area with substrate EVLYFQS | area with substrate EGLYFQS | area with substrate ETLYFQS | area with substrate EYLYFQS | area with substrate EPLYFQS | area with substrate EQLYFQS | area with substrate EWLYFQS |
| --- | --- | --- | --- | --- | --- | --- | --- | --- | --- | --- | --- | --- | --- | --- | --- | --- | --- | --- |
| MGESLFKGPRDYNPISSSICHLTNESDGHTTSLYGIGFGPFIITNKHLFRRNNGTLVVQSLHGVFKVKDTTTLQQHLVDGRDMIIIRMPKDFPPEPQKLKFREPQREERICLVTTNFQTKSMSSMVSDTSCTFPSGDGIFWKHWIQTKDGQCGSPLVSTRDGFIVGIHSASNFTNTNNYFTSVPKNFMELLTNQEAQQWVSGWRLNADSVLWGGHKVFMVKPEEPFQPVKEATQL [F95E] | 0.0664 | 0.0449 | 0.0642 | 0.0562 | 0.0392 | 0.0507 | 0.0484 | 0.0502 | 0.0571 | 0.0552 | 0.0599 | 0.0504 | – | – | – | – | – | – |
| MGESLFKGPRDYNPISSSICHLTNESDGHTTSLYGIGFGPFIITNKHLFRRNNGTLVVQSLHGVFKVKDTTTLQQHLVDGRDMIIIRMPKDFPPFPQKLKFREPQREENICLVTTNFQTKSMSSMVSDTSCTFPSGDGIFWKHWIQTKDGQCGSPLVSTRDGFIVGIHSASNFTNTNNYFTSVPKNFMELLTNQEAQQWVSGWRLNADSVLWGGHKVFMVKPEEPFQPVKEATQL [R109N] | 0.0824 | – | 0.122 | – | – | – | – | – | – | 0.086 | 0.0906 | – | 0.0957 | 0.0994 | 0.0866 | – | – | – |
| MGESLFKGPRDYNPISSSICHLTNESDGHTTSLYGIGFGPFIITNKHLFRRNNGTLVVQSLHGVFKVKDTTTLQQHLVDGRDMIIIRMPKDFPPFPQKLKFREPQREEAICLVTTNFQTKSMSSMVSDTSCTFPSGDGIFWKHWIQTKDGQCGSPLVSTRDGFIVGIHSASNFTNTNNYFTSVPKNFMELLTNQEAQQWVSGWRLNADSVLWGGHKVFMVKPEEPFQPVKEATQL [R109A] | 0.0988 | – | – | 0.113 | – | – | 0.0924 | 0.119 | 0.0973 | 0.0902 | 0.107 | – | – | 0.104 | – | 0.163 | 0.162 | – |
| MGESLFKGPRDYNPISSSICHLTNESDGHTTSLYGIGFGPFIITNKHLFRRNNGTLVVQSLHGVFKVKDTTTLQQHLVDGRDMIIIRMPKDFPPFPQKTKFREPQREERICLVTTNFQTKSMSSMVSDTSCTFPSGDGIFWKHWIQTKDGQCGSPLVSTRDGFIVGIHSASNFTNTNNYFTSVPKNFMELLTNQEAQQWVSGWRLNADSVLWGGHKVFMVKPEEPFQPVKEATQL [L99T] | 0.103 | – | 0.155 | – | 0.104 | – | – | – | – | – | 0.146 | – | – | – | – | 0.104 | – | 0.0917 |
| MGESLFKGPRDYNPISSSICHLTNESDGHTTSLYGIGFGPFIITNKHLFRRNNGTLVVQSLHGVFKVKDTTTLQQHLVDGRDMIIIRMPKDFPPFPQKLKFREPQREKRICLVTTNFQTKSMSSMVSDTSCTFPSGDGIFWKHWIQTKDGQCGSPLVSTRDGFIVGIHSASNFTNTNNYFTSVPKNFMELLTNQEAQQWVSGWRLNADSVLWGGHKVFMVKPEEPFQPVKEATQL [E108K] | 0.0501 | – | – | – | 0.0569 | 0.0586 | 0.0755 | 0.0557 | – | 0.0586 | 0.0958 | 0.0761 | – | – | – | 0.0724 | 0.0732 | 0.0578 |
| MGESLFKGPRDYNPISSSICHLTNESDGHTTSLYGIGFGPFIITNKHLFRRNNGTLVVQSLHGVFKVKDTTTLQQHLVDGRDMIIIRMPKDFPPFPQKLKMREPQREERICLVTTNFQTKSMSSMVSDTSCTFPSGDGIFWKHWIQTKDGQCGSPLVSTRDGFIVGIHSASNFTNTNNYFTSVPKNFMELLTNQEAQQWVSGWRLNADSVLWGGHKVFMVKPEEPFQPVKEATQL [F101M] | 0.089 | – | – | 0.12 | – | 0.0845 | 0.0767 | 0.0729 | – | 0.088 | 0.0935 | 0.0734 | 0.0816 | 0.11 | – | 0.104 | 0.0953 | – |
| MGESLFKGPRDYNPISSSICHLTNESDGHTTSLYGIGFGPFIITNKHLFRRNNGTLVVQSLHGVFKVKDTTTLQQHLVDGRDMIIIRMPKDFPPFPQKLKPREPQREERICLVTTNFQTKSMSSMVSDTSCTFPSGDGIFWKHWIQTKDGQCGSPLVSTRDGFIVGIHSASNFTNTNNYFTSVPKNFMELLTNQEAQQWVSGWRLNADSVLWGGHKVFMVKPEEPFQPVKEATQL [F101P] | 0.0392 | 0.06 | – | – | – | 0.046 | 0.0362 | 0.0638 | – | 0.0497 | 0.0523 | 0.0405 | 0.049 | 0.0532 | – | – | 0.0449 | 0.0665 |
| MGESLFKGPRDYNPISSSICHLTNESDGHTTSLYGIGFGPFIITNKHLFRRNNGTLVVQSLHGVFKVKDTTTLQQHLVDGRDMIIIRMPKDFPPFPQKLKGREPQREERICLVTTNFQTKSMSSMVSDTSCTFPSGDGIFWKHWIQTKDGQCGSPLVSTRDGFIVGIHSASNFTNTNNYFTSVPKNFMELLTNQEAQQWVSGWRLNADSVLWGGHKVFMVKPEEPFQPVKEATQL [F101G] | 0.0547 | – | – | 0.0506 | 0.0483 | 0.0453 | 0.0477 | – | – | 0.06 | 0.0522 | – | – | – | 0.0425 | – | 0.0629 | – |
| MGESLFKGPRDYNPISSSICHLTNESDGHTTSLYGIGFGPFIITNKHLFRRNNGTLVVQSLHGVFKVKDTTTLQQHLVDGRDMIIIRMPKDFPPFPQKLKFREPQRTERICLVTTNFQTKSMSSMVSDTSCTFPSGDGIFWKHWIQTKDGQCGSPLVSTRDGFIVGIHSASNFTNTNNYFTSVPKNFMELLTNQEAQQWVSGWRLNADSVLWGGHKVFMVKPEEPFQPVKEATQL [E107T] | 0.124 | – | – | – | 0.107 | – | – | 0.0903 | – | – | 0.105 | 0.11 | – | – | – | – | – | – |
| MGESLFKGPRDYNPISSSICHLTNESDGHTTSLYGIGFGPFIITNKHLFRRNNGTLVVQSLHGVFKVKDTTTLQQHLVDGRDMIIIRMPKDFPPFPQKLPFREPQREERICLVTTNFQTKSMSSMVSDTSCTFPSGDGIFWKHWIQTKDGQCGSPLVSTRDGFIVGIHSASNFTNTNNYFTSVPKNFMELLTNQEAQQWVSGWRLNADSVLWGGHKVFMVKPEEPFQPVKEATQL [K100P] | 0.091 | 0.138 | – | 0.0902 | – | 0.101 | 0.101 | 0.0828 | 0.105 | – | 0.113 | – | 0.0783 | 0.118 | 0.144 | – | – | 0.0887 |
